According to PMC4336329 (PLoS ONE, 2015):
Hit rate of the full screen: of about 310,000 compounds, about 2,200 (0.71%) showed an effect of 50% or more. The effect is printed as a negative number. The list shows a part of the results.

Target: human ether-à-go-go-related gene (hERG) potassium channel (human, UniProt Q12809)
Assay: primary screen, population patch clamp on CHO cells stably expressing hERG

human ether-à-go-go-related gene (hERG) potassium channel, sequence (Q12809 whole entry, looked up): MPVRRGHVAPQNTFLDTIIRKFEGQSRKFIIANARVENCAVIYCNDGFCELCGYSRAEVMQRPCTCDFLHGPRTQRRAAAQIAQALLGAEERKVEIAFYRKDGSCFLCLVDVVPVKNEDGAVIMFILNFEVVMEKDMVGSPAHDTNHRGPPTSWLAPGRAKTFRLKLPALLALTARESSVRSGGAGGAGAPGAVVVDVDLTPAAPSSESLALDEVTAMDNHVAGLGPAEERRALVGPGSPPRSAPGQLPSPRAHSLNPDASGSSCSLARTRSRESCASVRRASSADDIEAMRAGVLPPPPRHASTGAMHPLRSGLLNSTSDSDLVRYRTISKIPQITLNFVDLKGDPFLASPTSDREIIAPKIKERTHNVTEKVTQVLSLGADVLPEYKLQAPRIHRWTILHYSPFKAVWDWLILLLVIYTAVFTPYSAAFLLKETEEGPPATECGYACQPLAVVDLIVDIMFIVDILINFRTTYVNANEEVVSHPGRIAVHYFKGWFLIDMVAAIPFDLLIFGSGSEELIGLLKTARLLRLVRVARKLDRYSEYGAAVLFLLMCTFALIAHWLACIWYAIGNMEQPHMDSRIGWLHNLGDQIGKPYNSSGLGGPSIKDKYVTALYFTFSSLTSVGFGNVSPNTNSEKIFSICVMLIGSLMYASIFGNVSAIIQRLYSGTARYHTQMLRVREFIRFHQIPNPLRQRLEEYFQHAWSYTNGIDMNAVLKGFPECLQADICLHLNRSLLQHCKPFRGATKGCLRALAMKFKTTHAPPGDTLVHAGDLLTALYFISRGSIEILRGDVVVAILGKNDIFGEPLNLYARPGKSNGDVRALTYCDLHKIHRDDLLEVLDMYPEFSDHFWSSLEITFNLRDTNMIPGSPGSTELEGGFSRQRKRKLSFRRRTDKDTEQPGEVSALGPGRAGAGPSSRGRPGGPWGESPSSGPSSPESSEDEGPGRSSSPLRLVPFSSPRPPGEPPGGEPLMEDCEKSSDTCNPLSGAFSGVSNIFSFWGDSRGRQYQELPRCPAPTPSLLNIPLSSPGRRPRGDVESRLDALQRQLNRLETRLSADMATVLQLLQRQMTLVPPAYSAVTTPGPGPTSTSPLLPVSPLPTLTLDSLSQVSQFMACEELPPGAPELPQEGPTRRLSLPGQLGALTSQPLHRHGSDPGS

SMILES	hERG current change (%, negative = inhibition) at 1uM
O=C(Cc1ccc([N+](=O)[O-])cc1)Nc1cccnc1	0.804%
CCCN(CC(=O)Nc1ccccc1OC)C(=O)c1cc(-c2ccccc2)nn1-c1ccccc1	13.8%
COCCNC(=O)/C(C#N)=C/c1ccc(OCC(=O)NC2CCCCC2)cc1	8.74%
CN(C)C(=O)CCC(=O)N1CCCCC1C(=O)Nc1ccc(Oc2ccccc2F)cc1 (centres unmarked)	-17.3%
Cc1[nH]c2ccccc2c1CN1CCC(CO)(Cc2ccccc2)CC1	2.55%
Cc1cccc(C(=O)Nc2scc(CC(C)C)c2C(=O)O)c1	13%
CC(C(N)=O)N1CC(c2ccc(Cl)cc2)CC1=O (centres unmarked)	-1.16%
CCc1ccc(NC(=O)COc2coc(CN3CCc4ccccc4C3)cc2=O)cc1	-1.74%
CCOC(=O)C1CCCN(C(=O)c2cccc(S(=O)(=O)N3CC(C)OC(C)C3)c2)C1 (centres unmarked)	13.5%
Cc1cccc(N2CCN(C(=O)Cn3c(=O)[nH]c4ccsc4c3=O)CC2C)c1 (centres unmarked)	13%
CS(=O)(=O)Cc1ccc(C(=O)NC2CCCc3ccccc32)cc1 (centres unmarked)	13.5%
CCCC(=O)N1CC(=O)Nc2ccc(F)cc2C1c1ccccc1 (centres unmarked)	4.75%
Cc1cccc(C)c1NC(=O)c1ccc(-c2ccc(Cl)cc2Cl)o1	-4.04%
Oc1ccc(Cl)cc1Cc1cc(Cl)ccc1O	16.6%
CC(C)Cn1c(Cc2ccccc2)n[nH]c1=S	12.3%
CC(C)CNC(=S)N1CCN(c2nc3ccccc3s2)CC1	18.5%
CCCCCOC(=O)NC1CCS(=O)(=O)C1 (centres unmarked)	-8.31%
Cc1ccccc1S(=O)(=O)Nc1nc2ccccc2nc1NCCO	14.5%
CC(CCc1ccccc1)NC(=O)CSc1ccccc1 (centres unmarked)	9.29%
O=C(NNc1ccccc1Br)C(=O)n1ccc2ccccc21	-4.23%
CC(C)(C)c1cc(Br)ccc1OCC(=O)Nc1ncn[nH]1	14.8%
Cc1ccccc1N1CCN(S(=O)(=O)c2ccc3oc(=O)ccc3c2)CC1	11.3%
O=C(O)C(Cc1c[nH]c2ccccc12)NS(=O)(=O)c1cccc2nsnc12 (centres unmarked)	1.76%

SMILES	hERG current change (%, negative = inhibition) at 1uM
Cc1cc(C)n(CCNC(=O)C2CCC(=O)N(CC3CCCCC3)C2)n1 (centres unmarked)	16.1%
O=C(NC1CCCC1)c1ccc(COc2ccccc2Br)o1	3.35%
O=C(c1ccccn1)N1CCN(S(=O)(=O)c2cccc(Br)c2)CC1	2.24%
NC1=NCC(O)=C1c1nc2ccccc2[nH]1	7.99%
Cc1cc(NC(=O)c2ccccc2O)nc(C)n1	16.2%
O=C(NC1CCN(C(=O)N2c3ccccc3Sc3ccccc32)CC1)c1ccccc1Cl	3.25%
COc1ccc(CNC(=O)CCC(=O)c2ccc(C)cc2)cc1OC	22.8%
COc1ccc(NC(=S)Nc2ccc(N)c([N+](=O)[O-])c2)cc1	15.6%
CC(=O)Nc1ccc(S(=O)(=O)N2CCc3cc4c(cc3C2)OCCCO4)cc1	14%
CCOC(=O)/C=C(/C)N1N=C(c2ccc(OC)cc2)CC1c1cccc([N+](=O)[O-])c1 (centres unmarked)	20.4%
CCN(CC)CCCn1c2c(c(SCC(=O)Nc3cc(OC)cc(OC)c3)nc1=O)CCC2	-28.5%
CCOC(=O)N1C(=O)c2cc(OC)ccc2S1(=O)=O	12.5%
Cn1c(=O)[nH]c(=O)c2c1nc(N/N=C/c1cccnc1)n2Cc1ccc(Cl)cc1	17.5%
CC(C)(CNC(=O)c1ccc([N+](=O)[O-])c(Cl)c1)CNC(=O)c1ccc([N+](=O)[O-])c(Cl)c1	6.69%
O=C(Nc1nnc(CCN2CCCCC2)s1)c1cccc(Cl)c1	0.306%
COCc1ccccc1C1=CC(=O)C[C@H](c2ccc(OC)cc2)C1	11.1%
CCCc1cc(C(=O)Nc2cccc([N+](=O)[O-])c2)cs1	4.31%
O=S(=O)(NCC(c1ccco1)N1CCN(c2ccc(F)cc2)CC1)c1ccc2c(c1)OCCO2 (centres unmarked)	8.79%
COc1ccccc1Nc1nc(NCCO)nc(N)c1[N+](=O)[O-]	10.6%
CCOC(=O)c1[nH]c2ccc(OC)cc2c1NS(=O)(=O)c1ccc(Cl)s1	18.7%
Cn1cccc1CNC(=S)Nc1ccccc1F	11%
CCc1ccc(OCC(=O)N2CCN=C2c2ccccc2)cc1	3.19%
NC(=O)COc1ccc(-c2noc(COc3ccccc3[N+](=O)[O-])n2)cc1	6.51%

SMILES	hERG current change (%, negative = inhibition) at 1uM
O=C(O)c1ccccc1N/N=C/C1=C(N2CCOCC2)C(=C\c2ccccc2)/CC1	11.5%
O=C(O)c1cc(-c2ccco2)nn1-c1cccc(Cl)c1	-0.594%
O=C(NCCCn1ccnc1)c1cc(-c2ccc(Cl)cc2)nc2ccccc12	-45.1%
S=C(NCCc1c[nH]c2ccccc12)NC1CCCCC1	1.46%
Cc1ccc(CNC(=O)Cn2c(=O)n(CC(=O)N3CCCCC3)c(=O)c3sccc32)cc1	14.8%
CCCCN(C(=O)c1cccc(-n2cccc2)c1)c1c(N)n(CCCC)c(=O)[nH]c1=O	6.02%
CCOCCCNc1ncnc2c1nc1n2CCCC1	6.87%
O=C(Nc1nc(-c2ccccc2)c(C(=O)c2ccccc2)s1)c1ccc(S(=O)(=O)N2CCCC2)cc1	6.05%
CCN(c1ccc(OC)cc1)S(=O)(=O)c1nnc(NC(=O)COc2ccccc2)s1	14.8%
O=C(N/N=C/c1ccc(-c2ccc([N+](=O)[O-])cc2)o1)C(O)c1ccccc1 (centres unmarked)	-0.457%
COc1ccc(Cc2nc(-c3ccc(Br)o3)no2)cc1OC	-3%
CCOC(=O)C1CCN(C(=O)c2oc3ccc4c(c3c2C)C(O)CC2(CCCCC2)O4)CC1 (centres unmarked)	9.04%
Cn1c(SCC(=O)N/N=C/c2cccnc2)nnc1-c1ccccc1	14.8%
COc1ccc(OCC(=O)N2c3ccccc3CCc3ccccc32)cc1	15.9%
COc1cc(-c2nc3ccccc3c(=O)n2N)cc(OC)c1OC	16.7%
CC(C)(C)c1ccc(-n2ncc3c2CCCC3NC(=O)c2ccncc2)cc1 (centres unmarked)	2.75%
O=C(Nc1ccc(Br)cc1)c1ccco1	3.88%
COC(=O)c1n[nH]nc1-c1ccccc1	-10.3%
COCOc1ccc(C2CC(=O)c3c(OCOC)cc(OCOC)cc3O2)cc1 (centres unmarked)	9.9%
Cc1nn(Cc2ccc(Cl)cc2Cl)c(C)c1NC(=O)c1sc2ccccc2c1Cl	9.61%
CCCN(CC(=O)Nc1ccccc1C)C(=O)COc1c(C)cccc1C	5.9%
O=C(Nc1ccc2c(c1)COC2=O)c1ccc(Cl)c(Cl)c1	23.6%
CC1(C)Oc2ccc3ccc(=O)oc3c2/C(=C/NC2CCCCC2)C1=O	11.9%

SMILES	hERG current change (%, negative = inhibition) at 1uM
O=C1/C(=C\c2cc3c(cc2Cl)OCO3)N2CCC1CC2	12%
O=C1CCCCCCCCCC/C(=N\O)CCCO1	7.87%
Cc1cccc(CSc2nc3ccncc3n2CC(=O)Nc2cc(C)cc(C)c2)c1	11%
O=c1[nH]c(C2CCN(S(=O)(=O)Cc3ccccc3)CC2)nc2c1nnn2Cc1cccc(Cl)c1	10%
Cn1c(=O)n(CC(=O)O)c(=O)c2c1nc1n2CCS1	-3.42%
CC(C)c1ccc(OCC(O)CN2CCCC2)cc1.Cl (centres unmarked)	10.8%
CCOC(=O)N1CCN(C(=O)c2cn(CC)c3ccc(S(=O)(=O)N(C)C4CCCCC4)cc3c2=O)CC1	7.96%
O=C(Nc1ccccc1-c1ccccc1)C1CCCC1	4.23%
Cn1nc(C(C)(C)C)cc1C(=O)NCc1cc(F)cc2c1OCOC2	11.3%
CCCCN(C(=O)Cn1nnc2ccccc21)C(C(=O)NCCOC)c1ccc(OC)cc1 (centres unmarked)	6.23%
CC(=O)c1cnc2nc(SCc3ccc(Cl)cc3)nn2c1C	8.86%
CC(C(=O)Nc1cc([N+](=O)[O-])ccc1Cl)N1CCN(c2ccccc2O)CC1 (centres unmarked)	4.85%
CCOC(=O)C1CCCN(C(=O)CNC(=O)c2nn(-c3ccc(OC)c(Cl)c3)c(=O)c3ccccc23)C1 (centres unmarked)	13.7%
CCOC(=O)c1c(C)[nH]c(C)c1S(=O)(=O)N1CCN(c2cccc(C)c2)C(C)C1 (centres unmarked)	1.51%
O=C(c1cccs1)N1CCN(C23CC4CC(CC(C4)C2)C3)CC1	-8.84%
CCCC(C)C(=O)NCc1ccncc1 (centres unmarked)	16.2%
COc1ccc2sc(N3C(=O)CC(Cc4cccc(C)c4)C3=O)nc2c1 (centres unmarked)	-0.216%
CN(c1ccccc1C(=O)O)S(=O)(=O)c1ccc2c3c(cccc13)C(=O)N2	3.33%
Cc1ccc(C)c(N2CCN(CCN3CCCCC3)CC2)c1.Cl	7.07%
O=C(Nc1ccncc1)C1c2ccccc2Oc2ccccc21	8.36%
